# Laboratory results reported in PubChem BioAssay AID504466 (National Center for Advancing Translational Sciences (NCATS), 2011).
# The whole screen tested about 330,000 compounds, of which about 4,200 (1.3%) were called active. The shares of active, inactive and inconclusive entries below differ from those in the screen. The call rests on the fitted dose curve; in most records, active means well fitted activation curve with a large enough effect; inconclusive means small, poorly fitted or top-dose-only effect; inactive means no such curve, though single readings can be large or run the other way. Potencies beside an inconclusive call are fits to weak or partial responses and may not hold up.
# Test: qHTS screen for small molecules that induce genotoxicity in human embryonic kidney (HEK293T) cells expressing luciferase-tagged ELG1; further: nearly all actives have a fitted effect of over 60% in size; on activity change, positive = activation: % of control where 0% means no effect
# Conditions: HEK293T ELG1-luciferase reporter, luminescence, 16 h; series mostly up to 46 µM; activity change, positive = activation: at the top concentration
# Procedure, shortened: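 Luminescence read-out: rising ELG1-luciferase signal, reflecting elevated ELG1 protein under genetic stress, flags genotoxic compounds. Cells were treated for 16 hr at 37 °C before ONE-Glo detection.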
# Potency means the concentration at half of the fitted maximal effect; tags describe the fitted curve by direction and shape.
Compound,Potency,"activity change, positive = activation"
Clc1ccc(Nc2nc3cccnc3s2)cc1,"inconclusive: 9.2 µM [activator, partial curve]",
O=C(OC1CCOC1=O)c1cc(-c2cccc(Br)c2)nc2ccccc12 (stereo not drawn),,inactive: 3.41%
N=c1c2c3c(sc2nc2n1CCCCC2)CCCCC3,"inconclusive: 29.1 µM [activator, partial curve, poor fit]",
Cc1cc(C)c2nc(-c3ccccn3)cc(C(=O)NCc3cc(C)n(C)n3)c2c1,"inconclusive: 23.1 µM [activator, partial curve, poor fit]",
Cc1nc(N2CCCCC2)c2sc(=S)n(C)c2n1,active: 20.6 µM,
Cc1cccc(C(=O)Nc2ccn(C)n2)c1,"inconclusive: 18.3 µM [activator, partial curve, poor fit]",
Cc1cccc(NC(=O)/C(C#N)=C/c2ccc[nH]2)c1C,"inconclusive: 13 µM [activator, partial curve, poor fit]",
CC1CCc2c(sc(NC(=O)COC(=O)c3ccc(NC(=O)CC#N)cc3)c2C#N)C1 (stereo not drawn),"inconclusive: 29.1 µM [activator, partial curve, poor fit]",
Cc1cc(=O)n2[nH]c(-c3ccc(F)cc3)cc2n1,"inconclusive: 18.4 µM [activator, partial curve, poor fit]",
CN(C)CCCNC(=O)c1ccc(-c2cc(O)c3ncccc3c2)cc1,,inactive: 13.8%
COc1ccc(N=CC2=C(O)CCCC2=O)cc1,"inconclusive: 20.6 µM [activator, partial curve, poor fit]",
O=C(NC1CCCCC1)c1cc(C2CC2)on1,"inconclusive: 14.6 µM [activator, partial curve, poor fit]",
Cc1ccc(NC(=O)N2C(=O)C3(OCCO3)c3ccccc32)cc1,"inconclusive: 9.2 µM [activator, single point]",
CCc1ccc(OCC(=O)O/N=C(\N)c2ccncc2)c(Br)c1,"inconclusive: 8.2 µM [activator, single point]",
CCc1ccccc1NC(=O)N1CCc2ccccc21,,inactive: 11.5%
Cc1ccc(O)c(/C=N/NC(=O)c2[nH]ncc2Br)c1,active: 16.4 µM,
O=C(Nc1cccc(Cl)c1Cl)c1ccc(-c2ccccc2)cc1,"inconclusive: 10.3 µM [activator, partial curve, poor fit]",
O=C(Nc1nnc(-c2ccccc2Cl)o1)c1ccco1,"inconclusive: 29.1 µM [activator, partial curve, poor fit]",
Cc1cc(NC(=O)C(C)Oc2ccccc2)no1 (stereo not drawn),,inactive: -0.221%
CC(=C/c1ccccc1)/C=N/NC(=O)c1cnccn1,active: 8.91 µM,
CNS(=O)(=O)c1ccc(NC(=O)c2cc(-c3ccncc3)nc3ccc(Cl)cc23)cc1,,inactive: 12%
O=C(Nc1cccc(Cl)c1)NC1CCCCC1,,inactive: 8.33%
C=CCn1cnc2c(sc3nc(C)cc(C)c32)c1=O,"inconclusive: 20.6 µM [activator, partial curve, poor fit]",
COc1ccc(/C=C/C(=O)NC2CCCCC2C)cc1 (stereo not drawn),,inactive: -2.61%
Oc1ccc2ccccc2c1/C=N/Nc1nnc(-c2ncc[nH]2)c2ccccc12,,inactive: 17.3%
Cc1c(-c2ccccn2)c(=O)[nH]n1-c1ccc(F)cc1,"inconclusive: 1.16 µM [activator, partial curve]",

Compound,Potency,"activity change, positive = activation"
O=C(CN1CCc2ccccc21)Nc1ccc2c(c1)OCCCO2,"inconclusive: 16.4 µM [activator, partial curve, poor fit]",
O=C(N/N=C/c1cccc(Cl)c1)C1CCCC1,"inconclusive: 23.1 µM [activator, single point]",
Nc1ccc2nc(-c3cc(Cl)c(N)c(Cl)c3)[nH]c2c1,"inconclusive: 23.1 µM [activator, single point]",
Cc1cccc(NC(=O)c2cnc3sccn3c2=O)c1C,active: 4.11 µM,
Brc1ccc(-c2csc(Nc3nc(-c4ccc(Br)cc4)cs3)n2)cc1,,inactive: -10.7%
O=c1oc2ccccc2c(Nc2ccc(F)cc2)c1[N+](=O)[O-],,inactive: -4.72%
BrCCOCCOc1ccc2ccccc2c1,"inconclusive: 23.1 µM [activator, partial curve, poor fit]",
Cc1ccc(-c2nc3cc(N)ccc3o2)cc1Br,active: 2.91 µM,
O=C(COc1cc2oc(=O)c3c(c2cc1Cl)CCC3)Nc1cccnc1,"inconclusive: 11.6 µM [activator, partial curve, poor fit]",
COc1ccc(/C=C(\NC(=O)c2ccc(Cl)cc2)C(=O)NCCCn2ccnc2)cc1OC,,inactive: 3.7%
COc1ccc(-c2c(-c3cc(OC)cc(OC)c3)n(C)c3ccc(-c4ccc5c(c4)OCCO5)cc23)cc1,,inactive: 1.16%
Cc1ccc(NC(=O)C2CCN(C(=O)[C@@H]3Cc4ccccc4CN3)CC2)cc1,,inactive: 10.9%
CC(C)(C)N/N=C/c1c(O)n(-c2ccc(Cl)cn2)c(=O)c2ccccc12,,inactive: -2.49%
O=C(Nc1cccc(NC(=O)c2cccc([N+](=O)[O-])c2)n1)c1cccc([N+](=O)[O-])c1,"inconclusive: 29.1 µM [activator, partial curve, poor fit]",
O=C(CNc1ccc(F)cc1)N/N=C/c1c(O)ccc2ccccc12,"inconclusive: 29.1 µM [activator, partial curve, poor fit]",
CC1CCCC(C)N1C(=O)COC(=O)c1cc(F)c(F)cc1Cl (stereo not drawn),,inactive: -0.62%
Cc1oc(=O)c(NC(=O)c2cccc(Cl)c2)cc1C(=O)c1ccccc1,"inconclusive: 20.6 µM [activator, single point]",
CCOC(=O)Cn1nc(-c2ccc(F)cc2)oc1=O,,inactive: 2.04%
NC(=O)c1cc[n+](Cc2ccccc2Cl)cc1,,inactive: -1.98%
O=C(CN1CCCC1)N/N=C/c1c(O)ccc2ccccc12,"inconclusive: 6.51 µM [activator, full curve, poor fit]",
COc1ccccc1NS(=O)(=O)c1ccc2c(c1)n(C)c(=O)n2C,"inconclusive: 29.1 µM [activator, partial curve, poor fit]",
Cc1nn(CCOc2ccccc2)c(=O)n1-c1ccccc1F,"inconclusive: 23.1 µM [activator, partial curve, poor fit]",
O=C(CC(c1ccco1)S(=O)(=O)c1ccccc1)c1ccc(F)cc1 (stereo not drawn),,inactive: 0.594%
C=CCn1c(C)cc(C(=O)Cn2nc(C(=O)O)c3ccccc3c2=O)c1C,"inconclusive: 2.91 µM [activator, full curve]",
O=C(CN1C(=O)S/C(=C\c2ccccc2F)C1=O)NC1C=CS(=O)(=O)C1 (stereo not drawn),,inactive: -0.307%
CCOC(=O)c1ccc(S(=O)(=O)N2CCN(CC(O)COc3cccc(C(C)=O)c3)CC2)cc1 (stereo not drawn),,inactive: -0.808%

Compound,Potency,"activity change, positive = activation"
CCn1ccc(C(=O)Nc2ccc(Cl)cn2)n1,"inconclusive: 4.11 µM [activator, full curve]",
CN(C)CCCN(C(=O)c1ccco1)c1nc2cc3c(cc2s1)OCO3,"inconclusive: 18.3 µM [activator, single point]",
CCc1ccc(C(=O)Nn2cnc3ccccc3c2=O)cc1,"inconclusive: 18.3 µM [activator, partial curve]",
Cc1ccc2nc(-c3ccccc3N)[nH]c2c1,active: 1.16 µM,
Cc1ccc2c(c1)COc1c3ccc(C(=O)N4CCOCC4)cc3nn1-2,active: 16.4 µM,
O=c1oc2ccccc2cc1-c1cn2cccnc2n1,"inconclusive: 1.41 µM [activator, partial curve, poor fit]",
Cc1ccc(CNc2nc3ccccc3n2C)o1,"inconclusive: 18.3 µM [activator, single point]",
CC(C)c1ccc(/C=C2\SC(=S)N(CC(=O)NCCCN3CCOCC3)C2=O)cc1,"inconclusive: 20.6 µM [activator, single point]",
Cn1c(=N)n(CC(=O)c2ccc(Br)s2)c2ccccc21,active: 2.51 µM,
CN1CCc2c(sc(NC(=O)c3ccc4ccccc4c3)c2C(N)=O)C1,active: 10.3 µM,
COc1ccc(C(C)(C)C)cc1NC(=O)COC(=O)CN1C(=O)NC2(CCCCC2C)C1=O (stereo not drawn),,inactive: 0.282%
Cc1ccc(NC(=O)CSc2nnc(-c3ccccn3)n2N)c(Br)c1,,inactive: -4.24%
CC(=O)c1ccc(NC(=O)Nc2ccccc2)cc1,active: 1.84 µM,
c1ccc(-c2sc3ccccc3c2-c2ccc(OCCN3CCCC3)cc2)cc1,,inactive: -2.31%
CC1Cc2ccccc2N1C(=O)/C=C/c1cccc(F)c1 (stereo not drawn),"inconclusive: 5.8 µM [activator, partial curve]",
COC(=O)CNC(=O)CNC(=O)Nc1ccccc1Cl,,inactive: 1.33%
Cc1cc(=O)oc2cc(NC(=S)NCc3ccccn3)ccc12,,inactive: 16.3%
COc1ccc(OC)c(N/C(C)=C/C(=O)c2ccccc2)c1,"inconclusive: 10.3 µM [activator, partial curve]",
C=C1c2ccccc2NC(=O)N1c1ccc(OC)cc1,,inactive: 8.52%
CC(=O)c1cccc(NC(=O)CNC(=O)c2sc3ccccc3c2Cl)c1,"inconclusive: 20.6 µM [activator, partial curve]",
CCOc1ccccc1Nc1nc(-c2sc(NC(=O)c3ccc([N+](=O)[O-])cc3)nc2C)cs1,"inconclusive: 23.1 µM [activator, partial curve, poor fit]",
CS(=O)(=O)NCc1ccccc1Br,,inactive: 5.21%
Cc1ccc(-c2nc3ccsc3c(=O)o2)cc1,active: 18.4 µM,
C(=N\Nc1nc2ccccc2s1)/c1ccco1,"inconclusive: 1.46 µM [activator, partial curve]",
Cc1cccc(Cc2nnc(CCC(=O)N3CCCCC3c3nccs3)o2)c1 (stereo not drawn),,inactive: -5.66%
COc1ccccc1C(=O)Nc1sc2c(c1C(N)=O)CCCC2,"inconclusive: 16.4 µM [activator, single point]",
